Results taken from PubChem BioAssay AID588342 (National Center for Advancing Translational Sciences (NCATS), 2011).
“And” between values parts separate entries of the source, which are not always exact repeats. Equal entries are not always repeated. Hit rate of the full screen: of about 360,000 compounds, about 25,000 (6.9%) were called active. Inconclusive means that the source gave no clear call. Such entries were picked first, then a sample of the others. Calls follow the shape of the dose curve; as a rule, active = well fitted inhibition curve with a large enough effect; inconclusive = small, poorly fitted or top-dose-only effect; inactive = flat fitted curve, though single readings scatter. Potencies of inconclusive entries are doubtful fits and often do not repeat.

Target: Luciferin 4-monooxygenase (Photinus pyralis) (UniProt P08659)
Assay: qHTS profiling assay for firefly luciferase inhibitor/activator using purifed enzyme and Km concentrations of substrates (counterscreen for miR-21 project); also: nearly all actives have a fitted effect of over 55% in size;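 as to activity change, negative = inhibition: plate controls were vehicle for no effect and reference inhibitor for full effect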
Settings: purified FLuc, luminescence inhibition; series mostly up to 57.5 µM; activity change, negative = inhibition: at the top concentration
Method in brief: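 Purified P. pyralis luciferase (10nM final) with 10uM D-luciferin and 10uM ATP (Km levels) in 50mM Tris acetate pH 7.5, 10mM Mg acetate, 0.01% Tween-20, 0.05% BSA; qHTS 6-point titration, ~60 µM downward; luminescence read.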
Potency is read from the fitted curve at half-maximal effect; tags tell the direction and shape of the fitted curve.

UniProt P08659, sequence (P08659 whole entry, looked up): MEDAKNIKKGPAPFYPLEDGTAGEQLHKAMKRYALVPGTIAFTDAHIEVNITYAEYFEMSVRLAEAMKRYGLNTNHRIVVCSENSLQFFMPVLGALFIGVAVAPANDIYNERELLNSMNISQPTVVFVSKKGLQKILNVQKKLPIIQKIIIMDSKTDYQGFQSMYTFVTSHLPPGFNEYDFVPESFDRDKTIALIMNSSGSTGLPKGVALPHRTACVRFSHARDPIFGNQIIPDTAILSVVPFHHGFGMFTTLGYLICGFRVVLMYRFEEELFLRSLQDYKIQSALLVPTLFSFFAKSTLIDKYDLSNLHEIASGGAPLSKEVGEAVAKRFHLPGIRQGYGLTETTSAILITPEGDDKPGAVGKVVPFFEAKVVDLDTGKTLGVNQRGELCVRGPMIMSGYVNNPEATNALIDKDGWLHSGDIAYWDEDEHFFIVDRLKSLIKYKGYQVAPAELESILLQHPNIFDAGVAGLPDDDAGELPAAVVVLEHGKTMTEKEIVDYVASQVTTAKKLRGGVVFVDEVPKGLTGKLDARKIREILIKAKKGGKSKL

| SMILES | activity change, negative = inhibition | Potency |
| --- | --- | --- |
| Cc1ccc(CNC(=O)CN(C)S(=O)(=O)c2ccc(Br)s2)cc1 | inactive: -3.3% | – |
| Cc1ccc(-c2nc(C3CCN(S(C)(=O)=O)CC3)no2)cc1 | – | inconclusive: 16.9 µM [inhibitor, partial curve] |
| Cc1cccc(NC(=O)CSc2nc3[nH]ncc3c(=O)n2-c2ccccc2)c1 | – | inconclusive: 21.3 µM [inhibitor, single point] |
| NC(=O)[C@H]1CC2(CC(c3cccc(NC(=O)COc4ccc(Cl)cc4)c3)=NO2)CN1C(=O)[C@H]1CCC(=O)N1 (some centres not stated) | – | active: 12 µM |
| Cc1ccccc1NC(=O)CC1SC(=Nc2ccc(O)cc2)NC1=O (configuration not stated) | inactive: 4.1% | – |
| CCN(CCCNC(=O)c1cn(CC)c2ccc(S(=O)(=O)N(C)C)cc2c1=O)c1cccc(C)c1 | inactive: 8.44% | – |
| O=C(O)Cc1sc(Nc2ccc(C(=O)O)cc2)nc1-c1ccccc1 | – | inconclusive: 37.9 µM [inhibitor, partial curve, poor fit] |
| CCc1ccc(CNC(=O)C2CCN(S(=O)(=O)N3CCCC3)CC2)cc1 | inactive: 0.0891% | – |
| Oc1ccccc1/C=N/NC(=S)NCCc1ccccc1 | – | active: 26.9 µM |
| COc1ccc2c(c1)CCc1c(C(=O)Nc3c(C)nn(Cc4c(Cl)cccc4Cl)c3C)noc1-2 | inactive: -6.83% | – |
| NS(=O)(=O)c1ccc(N=Nc2c(O)c(C(=O)O)cc3ccccc23)cc1 | – | inconclusive: 26.9 µM [inhibitor, partial curve, poor fit] |
| O=C(CNC(=O)c1cccc(Br)c1)N/N=C/c1cccs1 | – | inconclusive: 37.9 µM [inhibitor, partial curve, poor fit] |
| O=C(c1cccs1)c1cn(CCOc2ccc(F)cc2)c2ccccc12 | inactive: -5.14% | – |
| COc1cc(-c2nc3ccc(Cl)cn3c2Nc2ccc3c(c2)OCO3)ccc1O | – | inconclusive: 30.1 µM [inhibitor, partial curve, poor fit] |
| Nc1nn(-c2ccccc2)nc1C(=O)OCc1ccccc1Br | – | inconclusive: 30.1 µM [inhibitor, partial curve, poor fit] |
| COc1ccc(-c2cc3ccc(OCC(C)=O)cc3oc2=O)cc1 | – | active: 1.9 µM |
| CCC(C(=O)NC1CCCC1)n1c(SCc2cccc(C)c2)nc2ccncc21 (configuration not stated) | – | inconclusive: 21.3 µM [inhibitor, partial curve, poor fit] |
| CCOc1cccc(C(=O)Nc2ccc(N(CC)CC)cc2)c1 | – | active: 13.5 µM |
| COC(=O)Cc1nnc(Nc2cccc(C)c2)c2ccccc12 | – | inconclusive: 21.3 µM [inhibitor, partial curve, poor fit] |
| COc1cc2ccccc2cc1C(=O)Nc1cccc(-c2nc3ccccc3o2)c1 | – | inconclusive: 2.39 µM [inhibitor, full curve] |
| Cc1ccccc1OCC(=O)Nc1ccc(N2CCN(C(=O)c3ccco3)CC2)cc1 | inactive: -0.813% | – |
| CC(C(=O)NCc1cccc(Br)c1)n1ncn2cccc2c1=O (configuration not stated) | – | active: 13.5 µM |
| CS/C(=C/[N+](=O)[O-])Nc1cccc2c1C(C)CC2(C)C (configuration not stated) | – | inconclusive: 30.1 µM [inhibitor, partial curve, poor fit] |
| COc1ccc(/C=C/C(=O)NC(=S)Nc2ccc(S(=O)(=O)Nc3ccc(OC)nn3)cc2)cc1 | – | inconclusive: 16.9 µM [inhibitor, partial curve] |

| SMILES | activity change, negative = inhibition | Potency |
| --- | --- | --- |
| CCSc1nc(O)cc(=O)n1CC | – | inconclusive: 9.53 µM [inhibitor, partial curve] |
| COc1cc2cc(C(=O)Nc3ccc4c(c3)OCCO4)[nH]c2cc1OC | – | active: 12 µM |
| Cc1ccccc1NC(=O)CCOc1ccccc1 | – | inconclusive: 30.1 µM [inhibitor, partial curve, poor fit] |
| CN(C)C(=O)COC(=O)/C=C/c1cn(-c2ccccc2)nc1-c1cccs1 | – | active: 19 µM |
| O=C(O)c1cccnc1SCc1cccc(Cl)c1 | – | inconclusive: 19 µM [inhibitor, partial curve] and inconclusive: 16.9 µM [inhibitor, partial curve] |
| COc1ccc(N/C=C\C(=O)c2ccc(C)cc2)cc1OC | – | active: 5.36 µM |
| Cc1ccc(S(=O)(=O)N(Cc2n[nH]c(=S)n2-c2ccccc2)c2cccc(Cl)c2)cc1 | – | inconclusive: 23.9 µM [inhibitor, partial curve, poor fit] |
| Cc1ccc(Nc2nc(N)nc(CSc3nccn3C)n2)c(C)c1 | – | inconclusive: 19 µM [inhibitor, partial curve] |
| O=C(NN=C1CCCC1)c1cc(-c2ccccc2)n[nH]1 | – | inconclusive: 26.9 µM [inhibitor, partial curve, poor fit] |
| O=C(Nc1cccc(-c2nc3ccccc3[nH]2)c1)c1c(F)cccc1F | – | active: 12 µM |
| O=C(N/N=C/c1c[nH]c2ccccc12)c1ccn[nH]1 | – | active: 21.3 µM |
| O=C(c1cn(-c2ccccc2)nc1-c1cccs1)N(CCO)Cc1ccccc1 | – | inconclusive: 37.9 µM [inhibitor, partial curve, poor fit] |
| O=S(=O)(Nc1nccs1)c1ccc(F)cc1 | – | inconclusive: 26.9 µM [inhibitor, single point] |
| COCCNC(=O)[C@@]1(C)C=C[C@@H](Cc2ccccc2)N1C(=O)c1ccccc1 | – | inconclusive: 26.9 µM [inhibitor, single point] |
| Cc1ccc(C(=O)NCC(=O)OCc2cc(=O)n3nc(C4CC4)sc3n2)cc1 | inactive: 0.666% | – |
| COc1ccc(OC(C)C(=O)NCCC2=CCCCC2)cc1 (configuration not stated) | inactive: -3.63% | – |
| COc1ccc2c(c1)C1(Nc3ccccc3-c3nc4ccccc4n31)C(=O)N2 (configuration not stated) | – | inconclusive: 37.9 µM [inhibitor, partial curve, poor fit] |
| O=[N+]([O-])c1cccc(/C([O-])=C(/C(=S)Nc2ccccc2)[n+]2ccccc2)c1 | inactive: -15.2% | – |
| CC(C)c1cc2c(c(O)c1O)[C@@]13CCCC(C)(C)C1CC2OC3=O (some centres not stated) | – | inconclusive: 19 µM [inhibitor, partial curve, poor fit] |
| CN(C(=S)Nc1ccc(Oc2ccccc2)cc1)C1CCCCC1 | – | inconclusive: 26.9 µM [inhibitor, single point] |
| Cc1ccc(N=Nc2cc(C)ccc2O)c(C)c1 | – | active: 4.78 µM |
| Cc1cccc2c(=O)oc(-c3ccccc3Cl)nc12 | – | inconclusive: 37.9 µM [inhibitor, partial curve, poor fit] |
| CC(=O)c1ccc(Oc2ncnc3sccc23)cc1 | – | inconclusive: 21.3 µM [inhibitor, partial curve, poor fit] |
| O=C(O)c1ccc(NC(=O)c2ccccc2NC(=O)c2cccc(F)c2)cc1 | – | inconclusive: 23.9 µM [inhibitor, single point] |

| SMILES | activity change, negative = inhibition | Potency |
| --- | --- | --- |
| Oc1ccc(-c2cn3c(n2)SCC3)cc1 | – | inconclusive: 21.3 µM [inhibitor, partial curve, poor fit] |
| O=C(CCC(=O)N(CC(=O)NC1CCCC1)C1CCCCC1)Nc1ccccn1 | – | inconclusive: 26.9 µM [inhibitor, single point] |
| COc1ccc(-c2csc(NC(=O)CSc3n[nH]c(C)n3)n2)cc1 | – | inconclusive: 23.9 µM [inhibitor, partial curve] |
| CC1(c2ccc3noc(-c4ccc(F)cc4)c3c2)OCCO1 | – | inconclusive: 19 µM [inhibitor, partial curve, poor fit] |
| Cc1cc(C)cc(NC(=S)Nc2cccc3cnccc23)c1 | – | inconclusive: 23.9 µM [inhibitor, partial curve, poor fit] |
| CC(C)(C)c1cc(OC(=O)c2ccccc2F)ccc1O | – | active: 26.9 µM |
| O=C(NCC(c1ccccc1Cl)N1CCCC1)c1ccc(N2CCCC2=O)cc1 (configuration not stated) | inactive: -18.8% | – |
| CCc1nnc(NS(=O)(=O)c2ccc(N=Cc3c(C)[nH]n(-c4ccc(C)cc4)c3=O)cc2)s1 | – | inconclusive: 16.9 µM [inhibitor, partial curve] |
| CCOC(=O)c1sc(NC(=O)c2ccccc2OCC)nc1C | inactive: -20% | – |
| O=C(c1ccco1)N1CCN(C(=O)c2cn(-c3ccccc3)nc2-c2ccccc2)CC1 | – | active: 6.01 µM |
| O=C(CSc1nnc(-c2ccncc2)n1-c1ccccc1)Nc1ccc(Br)cc1 | inactive: -4.36% | – |
| O=C(NCC1CCCN1S(=O)(=O)c1cccs1)c1ccccc1F (configuration not stated) | inactive: -1.24% | – |
| CNc1sc(C(=O)c2ccc(F)cc2)c(N)c1-c1nc2ccccc2s1 | – | inconclusive: 13.5 µM [inhibitor, partial curve] |
| CCOC(=O)CSc1nnc(-c2ccc(OC)cc2OC)o1 | – | active: 9.53 µM |
| COc1ccc(CCNC(=O)C(=O)NCC2OCCN2S(=O)(=O)c2ccc(OC)c(OC)c2)cc1 (configuration not stated) | inactive: -13.2% | – |
| c1ccc(-c2cn3nc4c(nc3n2)CCCC4)cc1 | – | active: 0.301 µM |
| Cc1cc(C(=O)COC(=O)CNS(=O)(=O)c2ccc3ccccc3c2)c(C)n1-c1ccccc1 | – | inconclusive: 37.9 µM [inhibitor, partial curve, poor fit] |
| O=C(NCc1ccccc1Cl)c1ccc(NC(=O)c2nsc3ccccc23)cc1 | – | active: 3.79 µM |
| O=C1CCCc2c1sc1nc3n(c(=O)c21)CCCCC3 | inactive: -19.8% | – |
| COc1ccccc1CNC(=O)C1CCN(Cc2cc3ccccc3n2Cc2cccc(C)c2)CC1 | inactive: -4.04% | – |
| COC(=O)[C@H](Cc1c[nH]c2ccccc12)NC(=O)NCc1ccc(OC)c(OC)c1 | inactive: -2.77% | – |
| Cc1ccc(-c2csc(=Nc3cccnc3)n2CCCN2CCCC2=O)cc1C | inactive: -0.592% | – |
| CC(=O)Nc1cccc(NC(=O)Nc2cccc(F)c2)c1 | – | active: 9.53 µM |
| O=C(O)CCC(=O)N1CCN(c2ccc(C(=O)c3ccc(F)cc3)cc2)CC1 | – | inconclusive: 26.9 µM [inhibitor, partial curve, poor fit] |
